# In all, about 310,000 compounds went through this assay and about 14,000 (4.5%) showed an effect of 50% or more. The effect is printed as a negative number. The list shows a part of the results.
# Biological target: human ether-à-go-go-related gene (hERG) potassium channel (human, UniProt Q12809)
# Test: primary screen, population patch clamp on CHO cells stably expressing hERG
# 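Also: peak tail current of the secondary pulse compared with the same well before compound.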
# human ether-à-go-go-related gene (hERG) potassium channel, sequence (Q12809 whole entry, looked up): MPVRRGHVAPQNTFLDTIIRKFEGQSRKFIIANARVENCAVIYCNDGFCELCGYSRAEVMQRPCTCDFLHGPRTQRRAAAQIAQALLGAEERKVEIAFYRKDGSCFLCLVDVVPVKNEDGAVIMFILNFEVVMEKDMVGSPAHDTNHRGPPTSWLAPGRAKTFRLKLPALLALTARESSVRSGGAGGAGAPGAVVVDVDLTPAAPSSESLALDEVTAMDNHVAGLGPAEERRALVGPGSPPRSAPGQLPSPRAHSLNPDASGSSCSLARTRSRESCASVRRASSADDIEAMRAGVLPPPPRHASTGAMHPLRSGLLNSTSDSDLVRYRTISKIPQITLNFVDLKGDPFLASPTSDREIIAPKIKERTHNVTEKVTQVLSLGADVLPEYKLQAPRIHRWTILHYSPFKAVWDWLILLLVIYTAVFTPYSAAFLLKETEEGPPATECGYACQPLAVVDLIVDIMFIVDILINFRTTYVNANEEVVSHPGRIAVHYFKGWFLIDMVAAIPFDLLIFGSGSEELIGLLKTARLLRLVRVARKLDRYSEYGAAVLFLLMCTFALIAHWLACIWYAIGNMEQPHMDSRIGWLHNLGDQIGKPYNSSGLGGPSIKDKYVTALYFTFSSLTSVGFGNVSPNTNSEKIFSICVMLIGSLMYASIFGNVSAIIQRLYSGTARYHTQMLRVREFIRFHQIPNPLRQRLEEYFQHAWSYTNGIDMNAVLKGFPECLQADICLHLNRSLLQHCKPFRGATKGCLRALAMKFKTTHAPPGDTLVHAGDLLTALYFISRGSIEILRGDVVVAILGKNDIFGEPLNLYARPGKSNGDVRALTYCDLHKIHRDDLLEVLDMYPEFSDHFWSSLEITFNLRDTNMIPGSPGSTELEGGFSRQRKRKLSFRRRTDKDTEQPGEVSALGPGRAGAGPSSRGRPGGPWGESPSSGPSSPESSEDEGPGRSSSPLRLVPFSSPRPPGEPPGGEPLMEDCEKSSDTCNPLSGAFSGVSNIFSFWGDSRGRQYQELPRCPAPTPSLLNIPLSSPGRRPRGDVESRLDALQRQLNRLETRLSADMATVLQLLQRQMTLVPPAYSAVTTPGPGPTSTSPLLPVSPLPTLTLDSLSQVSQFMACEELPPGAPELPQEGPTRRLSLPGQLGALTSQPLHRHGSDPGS
row,Compound,"hERG current change (%, negative = inhibition) at 10uM [%]"
1,O=C1C2C3C=CC(C3)C2C(=O)N1c1ccccc1 (stereo not drawn),9
2,Cc1ccc(C(C(=O)NCc2ccccc2)N(Cc2cccs2)C(=O)c2ccc3c(c2)OCCO3)cc1 (stereo not drawn),-1.52
3,Cc1sc(NC(=O)c2ccco2)c(CN2CCC(C)CC2)c1C,-16.2
4,CC(C)CC(NC=O)C(=O)O.COc1cc2c(cc1OC)C13CCN4CC5=CCOC6CC(=O)N2C1C6C5CC43 (stereo not drawn),3.18
5,Nc1ccc[n+](CC(=O)c2ccccc2)c1.[Br-],-9.03
6,O=C(/C=C/c1ccccc1)NC1CCSC1=O (stereo not drawn),8.98
7,NS(=O)(=O)Oc1ccccc1,10.1
8,COc1ccc(NC(=O)C2CCCN2C(=O)NC2CCCCC2)cc1 (stereo not drawn),-2.82
9,CCn1c(=O)n(CC(=O)Nc2ccc(F)cc2)c(=O)c2ccccc21,-6.08
10,O=C(CSc1nnc(Cc2ccccc2)o1)NC1CCCCC1,-2.76
11,CCOC(=O)Cn1nnc(-c2cc(OC)c(OC)c(OC)c2)n1,5.43
12,COc1cc2c3cc1Oc1cc(ccc1O)C[C@@H]1c4c(cc(OC)c(O)c4Oc4cccc(c4)C[C@@H]3N(C)CC2)CC[N+]1(C)C.Cl.O.[Cl-],9.2
13,O=C(CCn1c(=S)[nH]c2cc3c(cc2c1=O)OCO3)NCc1ccc(Cl)cc1,26
14,O=C(O)/C=C/S(=O)(=O)c1ccc2ccccc2c1,15.4
15,CCOc1ccc(N(CC(=O)Nc2ccccc2C)S(=O)(=O)c2c(C)[nH]c(=O)[nH]c2=O)cc1,3.24
16,CCCOc1cccc(/C=N/NC(=O)c2csc(C)c2C)c1,7.52
17,CCN(CC)CCN1CCn2c3c(c4cc(C)ccc42)CCCC31.Cl (stereo not drawn),-76.3
18,Cc1nnsc1-c1onc(C)c1C(=O)O/N=C/c1ccc(Cl)cc1,9.66
19,Cl.O.Oc1ccc2c3c1O[C@H]1c4[nH]c5ccccc5c4C[C@@]4(O)C(C2)N(CC2CC2)CC[C@]314,-55.4
20,CCc1nnc(NC(=O)CCC(=O)NC2CC2)s1,-50.5
21,CC(C)(C)NC(=O)CSc1nc(O)cc(=O)n1-c1ccccc1,-1.47
22,O=C(NCc1ccon1)c1ccc(OC2CCN(CCc3ccccc3)CC2)cc1,-66.6
23,CCC(C)NCCOCCOc1ccc(C)cc1Br.O=C(O)C(=O)O (stereo not drawn),-41
24,COc1ccc(-c2csc(NC(=O)C3=NN(c4ccccc4)C(=O)CC3)n2)cc1,-0.387

# — paper PMC4336329 (PLoS ONE, 2015)
